The source of these data is patent publication US7501399B2, “Immunoeffector compounds” (Corixa Corporation, priority 2000, dated 2009).

The experiment concerns hemagglutinin protein in FluZone influenza vaccine.
[1] abbreviates: FluZone, 0.2 μg hemagglutinin + 20 μg adjuvant s.c. day 0 and 14, pooled sera 14 days post secondary.

For the substance “N—[(R)-3-Tetradecanoyloxytetradecanoyl]-(S)-2-pyrrolidinomethyl 2-Deoxy-4-O-phosphono-2-[(R)-3-tetradecanoyloxytetradecanoylamino]-3-O—[(R)-3-tetradecanoyloxytetradecanoyl]-β-D-glucopyranoside Triethylammonium Salt [RC-553]”, the “FluZone titers versus antigen alone” value (Example 3, text) was “significantly higher than control sera receiving antigen alone”. In addition, under setting [1], the “Serum Titer IgG” value is on record as 51,200, the “Serum Titer IgG1” value was 102,400, the “Serum Titer IgG2a” value is on record as 25,600 and the “Serum Titer IgG2b” value turned out to be 6400.
